In the supplement of paper PMC8291772:
± gives the standard error. This is one part of the list.

biological target: terminal deoxynucleotidyl transferase (calf thymus) (UniProt P06526); assay: TdT poly-dT extension signal (Cy3 hybridisation fluorescence, uncapped minus capped) (fluorescence a.u.); higher = more efficient initiation of TdT extension; settings: initiator chemistry: L-DNA (mirror-image), free 5'-OH (3'-tethered via HEG linker)
Protocol: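 All mono- to pentamer D-DNA or L-DNA initiators were made by forward (3'->5') photolithographic in situ synthesis on glass on a hexaethylene glycol linker, leaving a free 5'-OH. Each was made in uncapped and DMTr-dT-capped versions, about 11 replicates each. Arrays were extended with calf thymus TdT (0.2 U/uL), 100 uM dTTP and 0.25 mM CoCl2 for 120 min at 37 C, hybridised with an rA18-Cy3 probe and scanned at 532 nm. The value is the mean uncapped minus the mean capped signal. IDs read 5'->3'. L-DNA is mirror-image; D-DNA 5'-OH initiators were below LOD (no extension).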

UniProt P06526, sequence (P06526 whole entry): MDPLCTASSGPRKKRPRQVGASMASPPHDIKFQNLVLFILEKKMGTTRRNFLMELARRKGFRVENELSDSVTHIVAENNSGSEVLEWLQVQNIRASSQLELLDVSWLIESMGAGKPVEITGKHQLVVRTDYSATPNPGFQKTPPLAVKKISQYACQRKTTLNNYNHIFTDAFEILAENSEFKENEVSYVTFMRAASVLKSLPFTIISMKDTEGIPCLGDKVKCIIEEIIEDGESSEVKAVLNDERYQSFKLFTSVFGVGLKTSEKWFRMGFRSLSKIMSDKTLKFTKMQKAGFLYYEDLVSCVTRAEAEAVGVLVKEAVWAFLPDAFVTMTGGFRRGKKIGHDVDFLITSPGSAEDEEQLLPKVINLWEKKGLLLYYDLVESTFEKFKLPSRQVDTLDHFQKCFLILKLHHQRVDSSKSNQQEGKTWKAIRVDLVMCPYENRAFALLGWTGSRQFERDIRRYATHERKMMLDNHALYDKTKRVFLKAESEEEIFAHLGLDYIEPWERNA

Sequence	TdT poly-dT extension signal
GTAAC	191 ± 15
CGAA	85.8 ± 8.1
AGTCT	45.6 ± 5.8
TTCTT	311 ± 24
GTCTA	137 ± 11
AACTA	80.8 ± 8.7
CCGA	85.8 ± 6.3
TTCT	243 ± 31
GCCGG	119 ± 8.8
GATG	77.6 ± 6.8
TACAA	219 ± 20
TGCA	144 ± 9.7
GTCG	120 ± 15
TAAA	211 ± 14
TTGC	186 ± 16
GCTC	71.8 ± 6.1
GCATT	82.9 ± 6.6
ACAAA	107 ± 9.3
TGGAC	142 ± 8
CTAT	161 ± 15
AAAGA	99.1 ± 14
CCGGA	78.7 ± 10

Sequence	TdT poly-dT extension signal
CTCCT	111 ± 9.1
CCCA	85.9 ± 8.4
GCAAC	79.9 ± 7.4
TCTC	128 ± 17
CAATC	72.9 ± 9.3
TGTA	126 ± 10
TCGT	107 ± 8
ACGCT	53.3 ± 8.2
TTTGC	271 ± 19
GGGG	92.1 ± 12
CAGTC	40.9 ± 6.1
ATCAG	196 ± 13
TAAAT	192 ± 18
CAGTG	49.3 ± 7.1
TCGCC	117 ± 8.6
TGCAT	139 ± 8.2
AGACC	65.8 ± 5.9
TCATC	161 ± 13
CTCAG	173 ± 11
GCGCG	71.1 ± 5.7
TCGCT	116 ± 9.8
GCGC	65.6 ± 5.8

Sequence	TdT poly-dT extension signal
ATTCC	116 ± 8.7
AATGT	65 ± 6.7
ATGCG	139 ± 13
TTAAG	495 ± 38
AACAG	86.5 ± 6.9
CGTGT	64 ± 6.9
AACC	85.8 ± 9.4
TGTTA	105 ± 9.5
GTCCA	122 ± 10
CCAA	122 ± 5.5
AGGCC	44.8 ± 6.1
TCCAT	191 ± 21
GCAGA	85.2 ± 7.5
ATGTG	137 ± 8.2
CTAC	128 ± 9.8
TGCAG	159 ± 10
TTCGT	330 ± 27
TGCTA	130 ± 14
TATT	147 ± 17
GTCAC	153 ± 10
AGCTT	39.7 ± 5.4
GGGGT	93.9 ± 12

Sequence	TdT poly-dT extension signal
GGCCT	81.3 ± 4.8
ATGGG	140 ± 11
AGAA	72.3 ± 4.3
ATCTC	134 ± 18
TGAGA	183 ± 12
TAGGC	112 ± 10
ATAAC	255 ± 20
GTACG	158 ± 12
GGCT	43.5 ± 5.9
GTCGG	178 ± 14
CATTG	68.2 ± 6.9
ATCG	160 ± 15
GCAC	60 ± 6.6
GCAGC	65.5 ± 4.7
CGGTT	44.1 ± 6.8
AGTTG	42.4 ± 5.7
ACATC	67.4 ± 8.2
ATCCG	155 ± 16
CCGGG	82.9 ± 7.7
CGGGT	53.6 ± 6.7
CGTAT	63.7 ± 4.6
TCTAG	191 ± 9.2

Sequence	TdT poly-dT extension signal
TTAG	308 ± 27
CCGAC	92.4 ± 7.3
CCACC	83.4 ± 6.5
CGCGC	77.5 ± 7.8
CCCAG	107 ± 6.9
TTCTC	274 ± 20
TTTGT	311 ± 21
AGACT	58.5 ± 4.5
TCAT	147 ± 9.1
AATAT	107 ± 12
ACCAG	102 ± 4.9
TAGTG	104 ± 8.4
AATGG	73.7 ± 4.7
CCGAT	71.6 ± 5.6
AATGA	87 ± 9.6
TTCTG	320 ± 24
CGAAC	81.2 ± 6.3
ACAAC	92.6 ± 6.6
